Over roughly 33,000 sequences, “E-score (-0.5 to 0.5)” has its median near -0.054; the highest 2% begin near 0.39. Some of the results follow.
biological target: Ylr278c (UniProt Q05854); experiment: PBM E-score (8-mer binding enrichment) (E-score (-0.5 to 0.5)); higher = stronger / more preferred TF binding; most listed sequences are background and not binding sites; settings: protein concentration: 200 nM; construct: GST-DNA-binding domain
Procedure, shortened: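 Each ungapped eight-base word and its reverse complement, pooled, received an E-score from the Universal PBM Analysis Suite. Underlying scans, normalised with masliner, recorded fluorescent anti-GST bound to GST-tagged yeast transcription factors. These were applied at about 100-200 nM to universal all-10-mer Agilent arrays double-stranded by primer extension.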

| Sequence | PBM E-score |
| --- | --- |
| GGAATATA | 0.299 |
| CGGCGGGC | 0.222 |
| GGTAGTTA | 0.0587 |
| ACGCTGGG | -0.159 |
| GTGATTCA | -0.271 |
| CGTACGAC | -0.152 |
| CAGATCAC | 0.0365 |
| GGAGTCGA | 0.0903 |
| CGTAATTA | 0.0408 |
| CGATGGAG | 0.288 |
| AGGCAAGG | -0.186 |
| CGGCAGGC | 0.102 |
| ACATATAC | -0.0995 |
| ACTGGGAT | -0.0964 |
| ATGGACGG | 0.231 |
| CAGTCCGC | 0.202 |
| CACCGTGG | -0.115 |
| AGCTAAAG | -0.246 |
| GGCTGCGA | 0.0266 |
| CATCAAAG | -0.134 |
| AAACCTTA | -0.0533 |
| AAACTATA | 0.0122 |
| ACTACGTG | -0.179 |
| ATGCGAGA | -0.0782 |
| ACGACGCC | -0.108 |

| Sequence | PBM E-score |
| --- | --- |
| CCGCTGCC | 0.138 |
| CAAATACC | 0.0412 |
| GCTGCTGA | -0.196 |
| AGGTGCGA | -0.0144 |
| AGAAAGAA | 0.0436 |
| AACCCCAG | -0.0147 |
| AACTGCGA | 0.148 |
| ATTTTTCC | 0.209 |
| CTGGAAGA | -0.121 |
| AACCCCCG | 0.26 |
| TAGATAGA | -0.171 |
| TCATTCGA | -0.182 |
| CCAACGCC | 0.136 |
| ATTGCAAC | -0.0584 |
| AAACCGGG | 0.215 |
| CAAGCTGG | -0.115 |
| CTAGTTCA | -0.225 |
| AGGGATAG | -0.0362 |
| AGATCGGC | 0.224 |
| TACTGATA | -0.07 |
| AGTCACAC | -0.173 |
| CTTTTTGC | 0.0657 |
| AGATGTAG | -0.0226 |
| ATTTAGAC | -0.0454 |
| GCGCGTAA | 0.0786 |

| Sequence | PBM E-score |
| --- | --- |
| AAAGAACC | 0.0884 |
| GCAGCGTA | -0.181 |
| AAAGGCCT | -0.267 |
| AACTTTCA | -0.121 |
| GCTCTCCA | -0.269 |
| CTGACCGA | -0.0157 |
| AACTGGAC | -0.193 |
| ATACGCAA | -0.132 |
| ACTGGGGA | -0.0389 |
| AGTCTTGA | -0.247 |
| AAGAAGCG | -0.0347 |
| CGATTCAC | -0.0556 |
| AGGACACG | 0.0321 |
| AATTATCA | -0.104 |
| GAACGAGC | -0.0145 |
| AGGGTCGC | 0.0614 |
| AATAAGCA | -0.138 |
| CCGGGCTC | 0.299 |
| ACGCCAAG | -0.201 |
| GCGGGAAC | 0.194 |
| GATGGTGA | -0.0412 |
| CCCACCAC | 0.0529 |
| AACCTCCA | -0.222 |
| GACTGCGA | 0.0431 |
| CTAACGTC | -0.0586 |

| Sequence | PBM E-score |
| --- | --- |
| CGCTGGAG | -0.0988 |
| CACGAACG | -0.0613 |
| ACCGCCTG | -0.0231 |
| ATCTACCA | -0.113 |
| GAGTGACA | -0.00079 |
| GAGGACTA | -0.0911 |
| ATGCCTAA | -0.184 |
| ACTCGGGC | 0.146 |
| ATTTCCCC | 0.127 |
| GATGCACA | -0.128 |
| GTTGTCGA | -0.129 |
| ATGATGTA | -0.0547 |
| AGCACATA | -0.0813 |
| ATGCTTTC | -0.101 |
| GGTATTTA | 0.144 |
| AAAAGAAG | -0.0265 |
| ACGGACCG | 0.335 |
| GAACTTGA | 0.15 |
| AGGTGGTG | -0.0566 |
| CTATAGAA | -0.281 |
| GATGATCC | 0.105 |
| CTAACCGC | -0.0705 |
| CCGGAGAG | 0.456 |
| CTAACTCC | 0.291 |
| TTATCGAA | 0.019 |

| Sequence | PBM E-score |
| --- | --- |
| ATCGTAGA | -0.29 |
| AACGAAAA | -0.118 |
| AACGAGAA | -0.0628 |
| CTTACGTA | -0.211 |
| TAGTCGGA | 0.414 |
| ATAAGAAA | -0.0158 |
| ACTAACCG | 0.0907 |
| ACCCGAGT | 0.181 |
| TACCTACA | -0.161 |
| AACTTTCC | 0.172 |
| ACGGAGAC | 0.39 |
| GCTAGCGA | -0.238 |
| ACAAAGCG | -0.0993 |
| GATTAACA | 0.0687 |
| ACCGAACC | 0.129 |
| ATGCTAGA | -0.33 |
| GGCGTATA | -0.0615 |
| AAGTTATA | -0.108 |
| ACAGCCGT | -0.0703 |
| CGTAGGAA | -0.0652 |
| ATTAGCAG | -0.0479 |
| AGTTTCGA | -0.0003 |
| CCATTGGC | -0.196 |
| TCATTAGA | -0.111 |
| AGACCTGG | -0.147 |

| Sequence | PBM E-score |
| --- | --- |
| ATTACTAC | -0.218 |
| TCGCGCCA | 0.0183 |
| ATGGATGG | -0.115 |
| CGGCTCGA | 0.0612 |
| ATTACCGG | 0.374 |
| TCTAGTAA | 0.0314 |
| CATCCTGG | -0.17 |
| AGCGTGCC | -0.0339 |
| ACTGGCTA | -0.169 |
| CTCAGTAC | -0.0964 |
| GAGTTCCA | 0.102 |
| CGCCCCAA | 0.196 |
| GCTGTCCC | -0.0872 |
| CGTTTCTC | 0.0785 |
| AGATAGGA | -0.0363 |
| ACATCGAA | -0.0874 |
| AGGAGTAG | -0.00627 |
| CAACAAGA | -0.0902 |
| AGGACCAA | -0.0013 |
| AACTCCAA | -0.00212 |
| CCACCTAC | -0.238 |
| CATAAAAG | -0.233 |
| ACTTACAT | -0.214 |
| AGAAACAC | -0.0852 |
| CCCGCTAC | 0.0482 |

| Sequence | PBM E-score |
| --- | --- |
| AAAAGGAT | -0.136 |
| GACGTCAC | -0.0267 |
| ACCATAAC | -0.207 |
| CCTCTGTC | -0.146 |
| CACGTAAA | -0.241 |
| ACTACCCT | -0.178 |
| ACCCTTAA | -0.249 |
| AGCTGCAC | -0.0789 |
| GACTCCAC | -0.0152 |
| CTAAGAAA | -0.172 |
| CCAACCAC | 0.0508 |
| AACTCACA | -0.153 |
| TCGGGCCA | 0.0968 |
| ACTCTTTG | -0.193 |
| AGCGTTTG | -0.139 |
| GGGCGGGA | 0.313 |
| CGGAGTGC | 0.438 |
| ACAGGGGT | -0.228 |
| AGCAGCAA | -0.0384 |
| GCAGGCAC | -0.167 |
| ACGACCGT | -0.27 |
| AGGATCGC | -0.0596 |

Source: the supplement of paper PMC3334620
